{"source": "the supplement of paper PMC8728848", "binders": {"B1": {"name": "BTL (Bryothamnion triquetrum) (protein)", "chain": "ADPICGSSGYSCTTPAILTPKSPGSFPSGYSKVIVTGVGGSYSVYIHRPDGFKVYKASEGGCASFGSYSGGGNSEVGKYGSGGTVVAVACK"}}, "assay_in_all_cases": "glycan array binding signal (z-score within array); higher = stronger binding", "conditions_in_all_cases": "glycan notation: IUPAC condensed, linker removed", "key": {"[1]": {"molecular_target": "Neu5Ac(a2-6)Gal(b1-4)GlcNAc(b1-6)[Gal(b1-3)GlcNAc(b1-3)]Gal(b1-4)Glc", "summary_of_the_method": "(§1)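 Glycan array data came from 3228 arrays in the Consortium for Functional Glycomics database, and only arrays with an available protein sequence were kept. Glycan names were put into IUPAC-condensed notation, and columns mapping to the same glycan were averaged. The binding signal is a within-array Z-score, averaged across arrays of one protein sequence run at different concentrations or buffers and across linkers. A negative Z-score can be read as non-binding.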"}, "[2]": {"molecular_target": "Neu5Ac(a2-6)Gal(b1-4)GlcNAc(b1-6)[Gal(b1-3)]GalNAc", "summary_of_the_method": "as §1"}, "[3]": {"molecular_target": "Neu5Ac(a2-6)Gal(b1-4)GlcNAc6S", "summary_of_the_method": "as §1"}, "Neu5Ac(a2-6)GalNAc": {"molecular_target": "Neu5Ac(a2-6)GalNAc", "summary_of_the_method": "as §1"}, "[4]": {"molecular_target": "Neu5Ac(a2-6)GalNAc(b1-4)GlcNAc", "summary_of_the_method": "as §1"}, "[5]": {"molecular_target": "Neu5Ac(a2-6)GalNAc(b1-4)GlcNAc6S", "summary_of_the_method": "as §1"}, "[6]": {"molecular_target": "Neu5Ac(a2-6)GlcNAc(b1-4)GlcNAc", "summary_of_the_method": "as §1"}, "[7]": {"molecular_target": "Neu5Ac(a2-6)GlcNAc(b1-4)GlcNAc(b1-4)GlcNAc", "summary_of_the_method": "as §1"}, "Neu5Ac(a2-8)Neu5Ac": {"molecular_target": "Neu5Ac(a2-8)Neu5Ac", "summary_of_the_method": "as §1"}, "[8]": {"molecular_target": "Neu5Ac(a2-8)Neu5Ac(a2-3)Gal(b1-3)GalNAc(b1-4)[Neu5Ac(a2-3)]Gal(b1-4)Glc", "summary_of_the_method": "as §1"}, "[9]": {"molecular_target": "Neu5Ac(a2-8)Neu5Ac(a2-3)Gal(b1-3)GalNAc(b1-4)[Neu5Ac(a2-8)Neu5Ac(a2-3)]Gal(b1-4)Glc", "summary_of_the_method": "as §1"}, "[10]": {"molecular_target": "Neu5Ac(a2-8)Neu5Ac(a2-3)Gal(b1-4)Glc", "summary_of_the_method": "as §1"}, "[11]": {"molecular_target": "Neu5Ac(a2-8)Neu5Ac(a2-3)Gal(b1-4)GlcNAc", "summary_of_the_method": "as §1"}, "[12]": {"molecular_target": "Neu5Ac(a2-8)Neu5Ac(a2-3)[Gal(b1-3)GalNAc(b1-4)]Gal(b1-4)Glc", "summary_of_the_method": "as §1"}, "[13]": {"molecular_target": "Neu5Ac(a2-8)Neu5Ac(a2-3)[GalNAc(b1-4)]Gal(b1-4)Glc", "summary_of_the_method": "as §1"}, "[14]": {"molecular_target": "Neu5Ac(a2-8)Neu5Ac(a2-8)Neu5Ac", "summary_of_the_method": "as §1"}, "[15]": {"molecular_target": "Neu5Ac(a2-8)Neu5Ac(a2-8)Neu5Ac(a2-3)Gal(b1-4)Glc", "summary_of_the_method": "as §1"}, "[16]": {"molecular_target": "Neu5Ac(a2-8)Neu5Ac(a2-8)Neu5Ac(a2-3)[Gal(b1-3)GalNAc(b1-4)]Gal(b1-4)Glc", "summary_of_the_method": "as §1"}, "[17]": {"molecular_target": "Neu5Ac(a2-8)Neu5Ac(a2-8)Neu5Ac(a2-3)[GalNAc(b1-4)]Gal(b1-4)Glc", "summary_of_the_method": "as §1"}, "[18]": {"molecular_target": "Neu5Ac(a2-8)Neu5Ac(a2-8)Neu5Ac(a2-8)Neu5Ac(a2-3)[GalNAc(b1-4)]Gal(b1-4)Glc", "summary_of_the_method": "as §1"}, "[19]": {"molecular_target": "Neu5Ac(a2-8)Neu5Gc(a2-3)Gal(b1-4)GlcNAc", "summary_of_the_method": "as §1"}, "[20]": {"molecular_target": "Neu5Ac(b2-6)Gal(b1-4)GlcNAc", "summary_of_the_method": "as §1"}, "Neu5Ac(b2-6)GalNAc": {"molecular_target": "Neu5Ac(b2-6)GalNAc", "summary_of_the_method": "as §1"}, "[21]": {"molecular_target": "Neu5Ac9Ac(a2-3)Gal(b1-3)GlcNAc", "summary_of_the_method": "as §1"}, "[22]": {"molecular_target": "Neu5Ac9Ac(a2-3)Gal(b1-4)GlcNAc", "summary_of_the_method": "as §1"}, "[23]": {"molecular_target": "Neu5Ac9Ac(a2-6)Gal(b1-4)GlcNAc", "summary_of_the_method": "as §1"}, "[24]": {"molecular_target": "Neu5Gc(a2-3)Gal(b1-3)GlcNAc", "summary_of_the_method": "as §1"}, "[25]": {"molecular_target": "Neu5Gc(a2-3)Gal(b1-3)[Fuc(a1-4)]GlcNAc", "summary_of_the_method": "as §1"}, "Neu5Gc(a2-3)Gal(b1-4)Glc": {"molecular_target": "Neu5Gc(a2-3)Gal(b1-4)Glc", "summary_of_the_method": "as §1"}, "[26]": {"molecular_target": "Neu5Gc(a2-3)Gal(b1-4)GlcNAc", "summary_of_the_method": "as §1"}, "[27]": {"molecular_target": "Neu5Gc(a2-3)Gal(b1-4)GlcNAc(b1-3)Gal(b1-4)GlcNAc(b1-2)Man(a1-3)[Neu5Gc(a2-3)Gal(b1-4)GlcNAc(b1-3)Gal(b1-4)GlcNAc(b1-2)Man(a1-6)]Man(b1-4)GlcNAc(b1-4)GlcNAc", "summary_of_the_method": "as §1"}, "[28]": {"molecular_target": "Neu5Gc(a2-3)Gal(b1-4)[Fuc(a1-3)]GlcNAc", "summary_of_the_method": "as §1"}, "[29]": {"molecular_target": "Neu5Gc(a2-6)Gal(b1-4)GlcNAc", "summary_of_the_method": "as §1"}, "Neu5Gc(a2-6)GalNAc": {"molecular_target": "Neu5Gc(a2-6)GalNAc", "summary_of_the_method": "as §1"}, "[30]": {"molecular_target": "Neu5Gc(a2-8)Neu5Ac(a2-3)Gal(b1-4)GlcNAc", "summary_of_the_method": "as §1"}, "[31]": {"molecular_target": "Neu5Gc(a2-8)Neu5Gc(a2-3)Gal(b1-4)GlcNAc", "summary_of_the_method": "as §1"}, "[32]": {"molecular_target": "Neu5Gc(a2-8)Neu5Gc(a2-3)Gal(b1-4)GlcNAc(b1-3)Gal(b1-4)GlcNAc", "summary_of_the_method": "as §1"}, "[33]": {"molecular_target": "Neu5Gc(a2-8)Neu5Gc(a2-6)Gal(b1-4)GlcNAc", "summary_of_the_method": "as §1"}, "[34]": {"molecular_target": "Neu5Gc(b2-6)Gal(b1-4)GlcNAc", "summary_of_the_method": "as §1"}}, "note": "Some of the results follow."}
{"binder": "B1", "values": [{"measurement": "glycan array binding signal (z-score)", "setting": "[1]", "value": -0.204}, {"measurement": "glycan array binding signal (z-score)", "setting": "[2]", "value": -0.175}, {"measurement": "glycan array binding signal (z-score)", "setting": "[3]", "value": -0.242}, {"measurement": "glycan array binding signal (z-score)", "setting": "Neu5Ac(a2-6)GalNAc", "value": -0.3}, {"measurement": "glycan array binding signal (z-score)", "setting": "[4]", "value": -0.28}, {"measurement": "glycan array binding signal (z-score)", "setting": "[5]", "value": -0.292}, {"measurement": "glycan array binding signal (z-score)", "setting": "[6]", "value": -0.257}, {"measurement": "glycan array binding signal (z-score)", "setting": "[7]", "value": -0.259}, {"measurement": "glycan array binding signal (z-score)", "setting": "Neu5Ac(a2-8)Neu5Ac", "value": -0.245}, {"measurement": "glycan array binding signal (z-score)", "setting": "[8]", "value": -0.211}, {"measurement": "glycan array binding signal (z-score)", "setting": "[9]", "value": -0.235}, {"measurement": "glycan array binding signal (z-score)", "setting": "[10]", "value": -0.281}, {"measurement": "glycan array binding signal (z-score)", "setting": "[11]", "value": -0.26}, {"measurement": "glycan array binding signal (z-score)", "setting": "[12]", "value": -0.191}, {"measurement": "glycan array binding signal (z-score)", "setting": "[13]", "value": -0.25}, {"measurement": "glycan array binding signal (z-score)", "setting": "[14]", "value": -0.236}, {"measurement": "glycan array binding signal (z-score)", "setting": "[15]", "value": -0.253}, {"measurement": "glycan array binding signal (z-score)", "setting": "[16]", "value": -0.259}, {"measurement": "glycan array binding signal (z-score)", "setting": "[17]", "value": -0.289}, {"measurement": "glycan array binding signal (z-score)", "setting": "[18]", "value": -0.275}, {"measurement": "glycan array binding signal (z-score)", "setting": "[19]", "value": -0.248}, {"measurement": "glycan array binding signal (z-score)", "setting": "[20]", "value": -0.201}, {"measurement": "glycan array binding signal (z-score)", "setting": "Neu5Ac(b2-6)GalNAc", "value": -0.274}, {"measurement": "glycan array binding signal (z-score)", "setting": "[21]", "value": -0.208}, {"measurement": "glycan array binding signal (z-score)", "setting": "[22]", "value": -0.251}, {"measurement": "glycan array binding signal (z-score)", "setting": "[23]", "value": -0.259}, {"measurement": "glycan array binding signal (z-score)", "setting": "[24]", "value": -0.308}, {"measurement": "glycan array binding signal (z-score)", "setting": "[25]", "value": -0.207}, {"measurement": "glycan array binding signal (z-score)", "setting": "Neu5Gc(a2-3)Gal(b1-4)Glc", "value": -0.28}, {"measurement": "glycan array binding signal (z-score)", "setting": "[26]", "value": -0.26}, {"measurement": "glycan array binding signal (z-score)", "setting": "[27]", "value": -0.087}, {"measurement": "glycan array binding signal (z-score)", "setting": "[28]", "value": -0.251}, {"measurement": "glycan array binding signal (z-score)", "setting": "[29]", "value": -0.277}, {"measurement": "glycan array binding signal (z-score)", "setting": "Neu5Gc(a2-6)GalNAc", "value": -0.264}, {"measurement": "glycan array binding signal (z-score)", "setting": "[30]", "value": -0.243}, {"measurement": "glycan array binding signal (z-score)", "setting": "[31]", "value": -0.269}, {"measurement": "glycan array binding signal (z-score)", "setting": "[32]", "value": -0.276}, {"measurement": "glycan array binding signal (z-score)", "setting": "[33]", "value": -0.296}, {"measurement": "glycan array binding signal (z-score)", "setting": "[34]", "value": -0.269}]}
